The whole screen tested about 72,000 compounds, of which about 710 (0.99%) were called active. The shares of active, inactive and inconclusive entries below differ from those in the screen. The call rests on the fitted dose curve; in most records, active means well fitted inhibition curve with a large enough effect; inconclusive means small, poorly fitted or top-dose-only effect; inactive means no such curve, though single readings can be large or run the other way. A potency beside an inconclusive call is a rough fit, not a confirmed value.
Assay: qHTS Assay for Inhibitors of the ERK Signaling Pathway using a Homogeneous Screening Assay; further: nearly all actives have a fitted effect of over 55% in size
Details: HEK293-V1b, vasopressin-stimulated pERK AlphaScreen; activity, negative = inhibition: at 57.5 µM (top of the series) unless noted
Outline: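 Overnight-seeded V1b-HEK293 cells in 1% FBS got compound, then vasopressin (25 nM final, 5 min, 37C), then lysis buffer. AlphaScreen detection of phospho-ERK; activity normalized to basal and full-stimulation controls.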
On the % scale 0 is the no-effect control and ±100 the full control effect; potency means the concentration at half of the fitted maximal effect; tags describe the fitted curve by direction and shape.

activity, negative = inhibition, inactive:
O=C1C=C[C@@H](O)[C@H]2[C@@H]3C(=O)N(c4cccc(Oc5ccccc5)c4)C(=O)[C@@H]3CC[C@H]12 14.1% [at 11.5 µM]
CC1=C2[C@H](/C=C(\C)C(=O)O)CC[C@@H](C)[C@H]2CC1 2.24%
CCCCN(C)S(=O)(=O)c1ccc(C(=O)Nc2nnc(-c3cccs3)o2)cc1 12.1%
CNC(=O)CCc1nc(-c2ccc(C(C)(C)C)cc2)no1 -8.01%
Cc1ccc(N2C(N)=C(C#N)C(c3cccnc3)C3=C2CC(C)(C)CC3=O)cc1 (centres undefined) -32.3%
N[C@@H](CSc1nc2ccccn2c1[N+](=O)[O-])C(=O)O 31.7% [at 11.5 µM]
COc1cccc(-c2nnc(SCC(=O)OC(C)C)n2N)c1 -0.557%
COC(=O)[C@@]1(Cc2ccc(OC)cc2)[C@H]2c3cc(C(=O)N4CCCC4)n(Cc4cc(F)c(F)c(F)c4)c3C[C@H]2CN1C(=O)c1ccccc1 6.33%
Cc1cn2nc(N)c3ccccc3c2n1 -20.7%
CCC(=O)Nc1ccc2nc(C)n(CC(=O)Nc3ccccc3)c(=O)c2c1 -7.23%
CC(C)C1N=C2c3ccccc3N=C(SCC(=O)NCCc3ccc(S(N)(=O)=O)cc3)N2C1=O (centres undefined) 13.7%
C(=N\n1cncn1)/c1ccc(N2CCOCC2)cc1 9.5%
O=C(O)[C@@H]1CCCN1Cc1ccc2c(c1)OCO2 18.8% [at 11.5 µM]
Cc1cccc2cc3ccc4ccccc4c3cc12 -4.63% [at 11.5 µM]
Cc1cc(C)c2c(=O)[nH]c(SCC(=O)N3CCCCC3)nc2n1 24.6%
Cc1noc(C)c1C(=O)N1CCC[C@@]2(CCN(C(c3ccccc3)c3ccccc3)C2)C1 12.9%
c1ccc(-c2noc(CSc3nnc(Cc4cccs4)n3-c3ccccc3)n2)cc1 -26.7%
O=C(Nc1cccc(-c2nnc(-c3ccccc3)o2)c1)C1CCCCC1 -12.2%
COC(=O)Cn1c(C(=O)N(C)C)cc2c1C[C@H]1CN(C(=O)c3ccccc3)[C@@](Cc3ccc(OC)cc3)(C(=O)OC)[C@@H]21 -7.27%
C[C@H](CO)NC(=O)[C@H]1C[C@@H]1[C@H](NP(=O)(c1ccccc1)c1ccccc1)c1ccccc1 -16.4%
CCOC(=O)c1csc(Nc2nc3ccc(F)cc3s2)n1 6.47%
Cc1cc(C)n(-c2nc3ccccc3nc2N2CCN(C(=O)c3ccc(F)cc3)CC2)n1 0.429%
COc1ccc(C2c3c(oc4ccccc4c3=O)C(=O)N2c2ccccn2)cc1 (centres undefined) -11.3%
COc1cc(C(=O)Nc2cccc(-c3nc4ccccc4o3)c2C)cc(OC)c1OC -14.8%

Potency, inconclusive:
CCOC(=O)c1nn(-c2ccccc2C)c(=O)c(C#N)c1C 5.01 µM [inhibitor, full curve, poor fit]
C#C[C@]1(OC(C)=O)CCC2C3CCC4=CC(=O)CCC4C3CC[C@]21C (some centres undefined) 31.6 µM [inhibitor, single point]
CCOc1ccc2nc(NC(=O)C(CC)Sc3nc(C)cc(=O)[nH]3)sc2c1 (centres undefined) 7.94 µM [inhibitor, full curve]
CCCc1[nH]nc2c1C1(C(=O)N(CC)c3ccccc31)C(C#N)=C(N)O2 (centres undefined) 31.6 µM [inhibitor, single point]
COc1ccc(OC)c(C2=NOC(C(=O)Nc3cc(C)nn3-c3ccccc3)C2)c1 (centres undefined) 25.1 µM [inhibitor, single point]
Cc1nc(SCC(=O)Nc2ccc3c(c2)OCCO3)c2oc3ccccc3c2n1 2.51 µM [inhibitor, full curve, poor fit]
CCOC(=O)CSc1nnc(-c2ccc(NS(=O)(=O)c3ccc(C)cc3)cc2)o1 25.1 µM [inhibitor, single point]
Cc1csc(NC(=O)c2cccc(Cn3nc(C)c(Br)c3C)c2)n1 39.8 µM [inhibitor, single point]
COc1ccc2[nH]c(=O)c(CN(CC3CCCO3)C(=O)Nc3ccccc3)cc2c1 (centres undefined) 7.94 µM [inhibitor, single point]
O=C1CC(N2CCN(c3ccc(F)cc3)CC2)C(=O)N1Cc1ccc(N2CCCC2=O)cc1 (centres undefined) 7.94 µM [inhibitor, partial curve]
CCOC(=O)c1cnc2ccc(Br)cc2c1NCCO 0.631 µM [inhibitor, partial curve]
CCOc1ccccc1N1CCN(S(=O)(=O)c2cccc3nsnc23)CC1 5.01 µM [inhibitor, partial curve]
Oc1ccc([C@@H]2CNCc3sccc32)cc1O 39.8 µM [inhibitor, single point]
O=C1CSC(c2cn(-c3ccccc3)nc2-c2ccccc2)N1Cc1ccco1 (centres undefined) 25.1 µM [inhibitor, partial curve]
CCCC(=O)Nc1cc(-c2nn(C)c(=O)c3ccccc23)ccc1N1CCCCC1 0.251 µM [inhibitor, full curve, poor fit]
COc1ccccc1OCCn1c(CO)nc2ccccc21 25.1 µM [inhibitor, single point]
C=C(C)COc1ccc(-c2nc(N)ncc2Oc2ccccc2OC)c(O)c1 2.51 µM [inhibitor, single point]
Oc1ccc2c(c1)OC(c1ccc(O)c(O)c1)C(O)C2 (centres undefined) 0.158 µM [inhibitor, partial curve, poor fit]
COc1cccc(C2CC(c3ccc(Cl)cc3)n3nc(N)nc3N2)c1 (centres undefined) 5.01 µM [inhibitor, partial curve]
COc1cccc(-c2cc(NCc3cccnc3)ncn2)c1 15.8 µM [inhibitor, partial curve]
O=C1COc2ccc(C(=O)COC(=O)CCc3ccc(S(=O)(=O)N4CCOCC4)cc3)cc2N1 25.1 µM [inhibitor, single point]
CCNc1ncc2nc(C)c(=O)n(Cc3cccc(OC)c3)c2n1 25.1 µM [inhibitor, single point]
COc1ncnc2c1N=C1CC(C)(C)CC(N)=C1S2 5.01 µM [inhibitor, partial curve]
COC(=O)Nc1ccc(S(=O)(=O)N2c3ccccc3CCC2C)cc1 (centres undefined) 39.8 µM [inhibitor, single point]
C/C(=C\C(=O)c1ccc(C)o1)Nc1ccc2c(c1)OCO2 25.1 µM [inhibitor, single point]
Cc1c(C(=O)NCCC2=CCCCC2)oc2ccc(S(=O)(=O)N3CCOCC3)cc12 39.8 µM [inhibitor, partial curve, poor fit]
O=c1c(-c2cc(F)cc(F)c2)nc2cncnc2n1-c1ccccc1 1.58 µM [inhibitor, full curve, poor fit]
Brc1ccc(C2Nc3cccc4cccc(c34)N2)o1 39.8 µM [inhibitor, single point]
CC(=O)Nc1nc2ccccc2n1CCOc1ccccc1Cl 39.8 µM [inhibitor, single point]
Cc1cc(NC(=O)CCCC(=O)NCc2cccs2)no1 10 µM [inhibitor, partial curve]
S=C(c1ccc(-c2cccc(Cl)c2)o1)N1CCOCC1 15.8 µM [inhibitor, partial curve]
COC(=O)c1[nH]c2ccc(C)cc2c1NC(=O)CN1CCN(C(=O)c2ccccc2)CC1 0.199 µM [inhibitor, full curve, poor fit]
COc1ccc(CNc2ncnc3ccc(-c4c(C)noc4C)cc23)c(OC)c1 12.6 µM [inhibitor, partial curve]
OC(CNCc1ccco1)Cn1c2ccccc2c2ccccc21 (centres undefined) 39.8 µM [inhibitor, single point]
CCn1c(SCc2nc(-c3cccs3)no2)nnc1-c1c[nH]c2ccccc12 39.8 µM [inhibitor, single point]
COc1ccc(NCc2ccc3c(c2)OCO3)cc1Cl 12.6 µM [inhibitor, partial curve]
Cc1nnc(SCC(=O)c2c(N)n(C)c(=O)n(C)c2=O)n1Cc1ccccc1 15.8 µM [inhibitor, single point]
O=C(NCc1ccco1)C(Cc1ccccc1)N1C(=O)C2C3C=CC(C3)C2C1=O (centres undefined) 12.6 µM [inhibitor, partial curve]
COc1cccc(Cn2c(=O)c(-c3cccs3)nc3cncnc32)c1 25.1 µM [inhibitor, single point]
c1nc(N2CCOCC2)c2cc(-c3ccoc3)ccc2n1 20 µM [inhibitor, partial curve]
COc1ccc(-c2nc(-c3cccs3)c(-c3cccs3)[nH]2)cc1O 39.8 µM [inhibitor, single point]
Cc1cc(O)c2c(c1)C(=O)c1cccc(O)c1C2=O 3.16 µM [inhibitor, full curve, poor fit]
COc1ccc(/C=N/n2c(SC)nnc2-c2ccccc2)cc1C 25.1 µM [inhibitor, partial curve]

Potency, active:
Clc1ccccc1-c1nccc(NCc2cccs2)n1 15.8 µM
Nc1nc(CSc2n[nH]c(-c3ccccc3)n2)nc(Nc2ccccc2)n1 25.1 µM

— PubChem BioAssay AID995 (National Center for Advancing Translational Sciences (NCATS), 2007)
